Several values for one entry are separate records, joined by “and”; a condition that tells them apart may be missing. Identical values can stand only once. The shares of active, inactive and inconclusive entries below differ from those in the screen. Calls follow the shape of the dose curve; as a rule, active = well fitted inhibition curve with a large enough effect in the signal ratio in the repeat runs (not every such curve was filed as active); inconclusive = weak or mixed curves; inactive = flat fitted curve, though single readings scatter; the % refers to the signal ratio. Where the call is inconclusive, the potency comes from a doubtful curve fit.
Assay: qHTS assay to identify small molecule antagonists of the TGF-beta/Smad signaling pathway (AID 1346924)
Details: SBE-bla HEK293T, TGF-beta/Smad reporter, beta-lactamase ratio; activity, negative = inhibition: at 76.8 µM (top of the series) unless noted
How it was run: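 SBE-bla HEK 293T cells were plated overnight, then received compound in DMSO plus TGF-beta1 (added as a 0.25 ng/mL solution) and were incubated 5 h at 37 C. Beta-lactamase reporter activity was read after 2 h at room temperature with LiveBLAzer B/G FRET substrate (ex 405, em 460/530 nm).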
Potency is read from the fitted curve at half-maximal effect; tags tell the direction and shape of the fitted curve or compound fluorescence and quenching.

Row | Structure (SMILES) | activity, negative = inhibition | Potency
1 | CNC(=O)O/N=C(\SC)C(=O)N(C)C | inconclusive: 9.12% | 
2 | C[C@H]1CCC[C@H](O)CCCCCc2cc(O)cc(O)c2C(=O)O1 | inconclusive: 9.88% | 
3 | CCOc1nc(F)cc2nc(S(=O)(=O)Nc3c(Cl)cccc3Cl)nn12 | inconclusive: -10.7% | 
4 | CC#C[C@]1(O)CC[C@H]2[C@@H]3C[C@H](C)C4=CC(=O)CC[C@]4(C)[C@H]3CC[C@@]21C |  | inconclusive: 19 µM [rising, partial curve]
5 | O=S(=O)(c1ccc(Cl)cc1)c1ccc(Cl)cc1 | inconclusive: -4.06% | 
6 | Oc1c(Br)cc(Br)cc1Br | inconclusive: 2.91% | 
7 | COc1ccc2c3c1O[C@H]1[C@@H](O)C=C[C@H]4[C@@H](C2)N(C)CC[C@@]341 | inconclusive: 8.38% | 
8 | CSC(=O)c1c(C(F)F)nc(C(F)(F)F)c(C(=O)SC)c1CC(C)C | inconclusive: -13.2% | 
9 | C#C[C@]1(O)C=C[C@H]2[C@@H]3CCC4=CC(=O)CC[C@@H]4[C@H]3CC[C@@]21CC |  | inconclusive: 26.8 µM [rising, single point]
10 | COC(=O)N(C(=O)N1CO[C@@]2(C(=O)OC)Cc3cc(Cl)ccc3C2=N1)c1ccc(OC(F)(F)F)cc1 | inconclusive: -28.2% | 
11 | Nc1ccc(Cl)cc1C(=O)c1ccccc1F | inconclusive: -17.6% [at 35.3 µM] | 
12 | CC(=O)C(Cl)C(=O)N(C)C (centres undefined) | inconclusive: 1.25% | 
13 | Cc1ccccc1N | inconclusive: 4.44% and inconclusive: -0.877% | 
14 | CCN(CC)C(=O)SCc1ccc(Cl)cc1 | inconclusive: -16.9% | 
